Assay results taken from the supplement of paper PMC12217912.
The list shows a part of the results. Sequences were assembled here from the parent chain. Values near 0.05 are background.

B1: TEV protease; numbered along this chain (parent)
chain: MGESLFKGPRDYNPISSSICHLTNESDGHTTSLYGIGFGPFIITNKHLFRRNNGTLVVQSLHGVFKVKDTTTLQQHLVDGRDMIIIRMPKDFPPFPQKLKFREPQREERICLVTTNFQTKSMSSMVSDTSCTFPSGDGIFWKHWIQTKDGQCGSPLVSTRDGFIVGIHSASNFTNTNNYFTSVPKNFMELLTNQEAQQWVSGWRLNADSVLWGGHKVFMVKPEEPFQPVKEATQL

Variants of: B1
Assay: raw area under fraction-flipped curve 0-4 h after induction (AUC4h, not background-subtracted), DNA-recorder readout of cleavage of the substrate (dimensionless); higher = more cleavage of the substrate by the protease variant
Details: temperature: 34 °C; time window: 0-4 h after rhamnose induction
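Further: Bxb1 expression induced with 0.2% (w/v) L-rhamnose at OD600 near 0.5, cultures sampled hourly, flipped fraction per protease–substrate barcode pair counted by paired-end Illumina sequencing.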

Question: For MGESLFKGPRDYNPISSSICHLTNESDGHTTSLYGIGFGPFIITNKHLFRRNNGTLVVQSLHGVFKVKDTTTLQQHLVDGRDMIIIRMPKDFPPFPQKLKFREPQREERICLVTTNFQTKSMSSMVSDTSCTFPSGDGIFWKHWIQTKDGQCGSPLVSTRDGFIVGIHSASNFTNTNNYFTSVPKNFMELLTNQEAQQWVSGTRLNADSVLWGGHKVFMVKPEEPFQPVKEATQL [W203T], which “area with substrate GNLYFQS” value is on record?
Answer: 0.0575

Question: What about the “area with substrate HNLYFQS” value of the same variant?
Answer: 0.0601

Question: What about the “area with substrate MNLYFQS” value of the same variant?
Answer: 0.0677

Question: What about the “area with substrate NNLYFQS” value of the same variant?
Answer: 0.066

Question: What about the “area with substrate PNLYFQS” value of the same variant?
Answer: 0.0522

Question: What about the “area with substrate QNLYFQS” value of the same variant?
Answer: 0.066

Question: What about the “area with substrate RNLYFQS” value of the same variant?
Answer: 0.0291

Question: And the “area with substrate SNLYFQS” value?
Answer: 0.0627

Question: And the “area with substrate TNLYFQS” value?
Answer: 0.0543

Question: And the “area with substrate WNLYFQS” value?
Answer: 0.0587

Question: For MGESLFKGPRDYNPISSSICHLTNESDGHTTSLYGIGFGPFIITNKHLFRRNNGTLVVQSLHGVFKVKDTTTLQQHLVDGRDMIIIRMPKDFPPFPQKLKFREPQREERICLVTTNFQTKSMSSMVSDTSCTFPSGDGIFWKHWIQTKDGQCGSPLVSTRDGFIVGIHSASNFTNTNNYFTSVPKNFMELLTNQEAQQWVSGWRLNFDSVLWGGHKVFMVKPEEPFQPVKEATQL [A207F], which “area with substrate GNLYFQS” value is on record?
Answer: 0.0411

Question: And the “area with substrate HNLYFQS” value?
Answer: 0.0491

Question: And the “area with substrate LNLYFQS” value?
Answer: 0.0943

Question: What about the “area with substrate NNLYFQS” value of the same variant?
Answer: 0.0645

Question: What about the “area with substrate SNLYFQS” value of the same variant?
Answer: 0.0519

Question: What about the “area with substrate TNLYFQS” value of the same variant?
Answer: 0.0483

Question: And the “area with substrate YNLYFQS” value?
Answer: 0.0737

Question: With MGESLFKGPRDYNPISSSICHLTNESDGHTTSLYGIGFGPFIITNKHLFRRNNGTLVVQSLHGVFKVKDTTTLQQHLVDGRDMIIIRMPKDFPPFPQKLKFREPQREERICLVTTNFQTKSMSSMVSDTSCTFPSGDGIFWKHWIQTKDGQCGSPLVSTRDGFIVGIHSASNFTNTNNYFTSVPKNFMELLTNQEAQQWVSGWRLNAASVLWGGHKVFMVKPEEPFQPVKEATQL [D208A] as the variant, how does the “area with substrate GNLYFQS” value read?
Answer: 0.0572

Question: What about the “area with substrate MNLYFQS” value of the same variant?
Answer: 0.0617

Question: And the “area with substrate PNLYFQS” value?
Answer: 0.0351

Question: And the “area with substrate RNLYFQS” value?
Answer: 0.089

Question: Which “area with substrate GNLYFQS” value does the source give for MGESLFKGPRDYNPISSSICHLTNESDGHTTSLYGIGFGPFIITNKHLFRRNNGTLVVQSLHGVFKVKDTTTLQQHLVDGRDMIIIRMPKDFPPFPQKLKFREPQREERICLVTTNFQTKSMSSMVSDTSCTFPSGDGIFWKHWIQTKDGQCGSPLVSTRDGFIVGIHSASNFTNTNNYFTSVPKNFMELLTNQEAQQWVSGWRLNADSVLIGGHKVFMVKPEEPFQPVKEATQL [W212I] here?
Answer: 0.0649

Question: What about the “area with substrate INLYFQS” value of the same variant?
Answer: 0.0821

Question: What about the “area with substrate KNLYFQS” value of the same variant?
Answer: 0.0776

Question: And the “area with substrate MNLYFQS” value?
Answer: 0.0644

Question: What about the “area with substrate PNLYFQS” value of the same variant?
Answer: 0.0799

Question: What about the “area with substrate VNLYFQS” value of the same variant?
Answer: 0.0824

Question: What about the “area with substrate WNLYFQS” value of the same variant?
Answer: 0.06

Question: And the “area with substrate YNLYFQS” value?
Answer: 0.0809

Question: With MGESLFKGPRDYNPISSSICHLTNESDGHTTSLYGIGFGPFIITNKHLFRRNNGTLVVQSLHGVFKVKDTTTLQQHLVDGRDMIIIRMPKDFPPFPQKLKFREPQREERICLVTTNFQTKSMSSMVSDTSCTFPSGDGIFWKHWIQTKDGQCGSPLVSTRDGFIVGIHSASNFTNTNNYFTSVPKNFMELLTNQEAQQWVSGWRLNADSVLWGGHEVFMVKPEEPFQPVKEATQL [K216E] as the variant, how does the “area with substrate GNLYFQS” value read?
Answer: 0.0355

Question: What about the “area with substrate HNLYFQS” value of the same variant?
Answer: 0.0605

Question: And the “area with substrate MNLYFQS” value?
Answer: 0.0328

Question: And the “area with substrate PNLYFQS” value?
Answer: 0.0685

Question: And the “area with substrate TNLYFQS” value?
Answer: 0.0688

Question: What does the source list for MGESLFKGPRDYNPISSSICHLTNESDGHTTSLYGIGFGPFIITNKHLFRRNNGTLVVQSLHGVFKVKDTTTLQQHLVDGRDMIIIRMPKDFPPFPQKLKFREPQREERICLVTTNFQTKSMSSMVSDTSCTFPSGDGIFWKHWIQTKDGQCGSPLVSTRDGFIVGIHSASNFTNTNNYFTSVPKNFMELLTNQEAQQWVSGWRLNADSVLWGGHYVFMVKPEEPFQPVKEATQL [K216Y]?
Answer: area with substrate GNLYFQS: 0.0695; area with substrate HNLYFQS: 0.0551; area with substrate INLYFQS: 0.0563; area with substrate LNLYFQS: 0.0698; area with substrate MNLYFQS: 0.0654; area with substrate NNLYFQS: 0.0402; area with substrate RNLYFQS: 0.062; area with substrate SNLYFQS: 0.0627; area with substrate TNLYFQS: 0.0662; area with substrate WNLYFQS: 0.0674; area with substrate YNLYFQS: 0.0429

Question: What does the source list for MGESLFKGPRDYNPISSSICHLTNESDGHTTSLYGIGFGPFIITNKHLFRRNNGTLVVQSLHGVFKVKDTTTLQQHLVDGRDMIIIRMPKDFPPFPQKLKFREPQREERICLVTTNFQTKSMSSMVSDTSCTFPSGDGIFWKHWIQTKDGQCGSPLVSTRDGFIVGIHSASNFTNTNNYFTSVPKNFMELLTNQEAQQWVSGWRLNADSVLWGGHKVFMVKPEEPFQPVKEAFQL [T233F]?
Answer: area with substrate GNLYFQS: 0.0593; area with substrate HNLYFQS: 0.0577; area with substrate KNLYFQS: 0.0655; area with substrate LNLYFQS: 0.058; area with substrate MNLYFQS: 0.0629; area with substrate NNLYFQS: 0.0658; area with substrate PNLYFQS: 0.0677; area with substrate SNLYFQS: 0.069; area with substrate TNLYFQS: 0.0634; area with substrate WNLYFQS: 0.0536

Question: What does the source list for MGESLFCGPRDYNPISSSICHLTNESDGHTTSLYGIGFGPFIITNKHLFRRNNGTLVVQSLHGVFKVKDTTTLQQHLVDGRDMIIIRMPKDFPPFPQKLKFREPQREERICLVTTNFQTKSMSSMVSDTSCTFPSGDGIFWKHWIQTKDGQCGSPLVSTRDGFIVGIHSASNFTNTNNYFTSVPKNFMELLTNQEAQQWVSGWRLNADSVLWGGHKVFMVKPEEPFQPVKEATQL [K7C]?
Answer: area with substrate HNLYFQS: 0.0592; area with substrate INLYFQS: 0.0577; area with substrate MNLYFQS: 0.0722; area with substrate PNLYFQS: 0.0693; area with substrate WNLYFQS: 0.0847

Question: Which results are given for MGESLFKHPRDYNPISSSICHLTNESDGHTTSLYGIGFGPFIITNKHLFRRNNGTLVVQSLHGVFKVKDTTTLQQHLVDGRDMIIIRMPKDFPPFPQKLKFREPQREERICLVTTNFQTKSMSSMVSDTSCTFPSGDGIFWKHWIQTKDGQCGSPLVSTRDGFIVGIHSASNFTNTNNYFTSVPKNFMELLTNQEAQQWVSGWRLNADSVLWGGHKVFMVKPEEPFQPVKEATQL [G8H]?
Answer: area with substrate HNLYFQS: 0.0571; area with substrate LNLYFQS: 0.0801; area with substrate NNLYFQS: 0.0508; area with substrate PNLYFQS: 0.081

Question: For MGESLFKGPRDYNPISSDICHLTNESDGHTTSLYGIGFGPFIITNKHLFRRNNGTLVVQSLHGVFKVKDTTTLQQHLVDGRDMIIIRMPKDFPPFPQKLKFREPQREERICLVTTNFQTKSMSSMVSDTSCTFPSGDGIFWKHWIQTKDGQCGSPLVSTRDGFIVGIHSASNFTNTNNYFTSVPKNFMELLTNQEAQQWVSGWRLNADSVLWGGHKVFMVKPEEPFQPVKEATQL [S18D], which “area with substrate HNLYFQS” value is on record?
Answer: 0.0578

Question: And the “area with substrate INLYFQS” value?
Answer: 0.0605

Question: And the “area with substrate KNLYFQS” value?
Answer: 0.0577

Question: And the “area with substrate LNLYFQS” value?
Answer: 0.0564

Question: And the “area with substrate NNLYFQS” value?
Answer: 0.0552

Question: What about the “area with substrate PNLYFQS” value of the same variant?
Answer: 0.0561

Question: And the “area with substrate SNLYFQS” value?
Answer: 0.0677

Question: What about the “area with substrate VNLYFQS” value of the same variant?
Answer: 0.0553

Question: What about the “area with substrate WNLYFQS” value of the same variant?
Answer: 0.0494
